What was measured:
[1] = Toxicity, mock-infected MT4 CMV-EGFP cells; type: cell-based; conditions: human
Description: Assay 1 &2: Antiviral Activity/Toxicity
Analogously, MT4 cells are engineered with GFP and the constitutional cytomegalovirus (CMV) promotor. […] Cytotoxic investigational compounds reduce GFP levels of mock-infected MT4 CMV-EGFP cells.
The ratio of CC50 to EC50 is defined as the selectivity index (SI) and is an indication of the selectivity of the anti-HIV activity of the inhibitor. The ultimate monitoring of HIV-1 infection and cytotoxicity is done using a scanning microscope. Image analysis allows very sensitive detection of viral infection. Measurements are done before cell necrosis, which usually takes place about five days after infection, in particular measurements are performed three days after infection.
A pEC50 value corresponds to −log10(EC50). A pCC50 value corresponds to −log10(CC50).

[2] = Metabolic stability of test compounds (HLM15'); type: in vitro ADME; conditions: human, pH 7.4
Description: Human liver tissue is rinsed in ice-cold 0.1 M Tris-HCl (pH 7.4) buffer to wash excess blood. Tissue is then blotted dry, weighed and chopped coarsely using surgical scissors. The tissue pieces are homogenized in 3 volumes of ice-cold 0.1 M phosphate buffer (pH 7.4) using either a Potter-S (Braun, Italy) equipped with a Teflon pestle or a Sorvall Omni-Mix homogenizer, for 7×10 sec. In both cases, the vessel is kept in/on ice during the homogenization process. Tissue homogenates are centrifuged at 9000×g for 20 min at 4° C. using a Sorvall centrifuge or Beckman Ultracentrifuge. The resulting supernatant can be stored at −80° C. and is designated ‘S9’. The S9 fraction is centrifuged at 100,000×g for 60 min at 4° C. using a Beckman ultracentrifuge. The resulting supernatant is carefully aspirated, aliquoted and designated ‘cytosol’. The pellet is re-suspended in 0.1 M phosphate buffer (pH 7.4) in a final volume of 1 ml per 0.5 g original tissue weight and designated ‘microsomes’. All sub-cellular fractions are aliquoted, immediately frozen in liquid nitrogen and stored at −80° C. until use.
Heat-inactivated (10 min at 95° C.) ‘S9’ or microsomes were used for blank experiments. […] The reaction was incubated for 0 or 15 min. Next, the reaction was stopped by addition of 2 volumes of DMSO (or acetonitrile). Samples were centrifuged (10 min, 900×g) and analyzed by LC-MS.

Q: With C#CCN(C[C@@H](O)[C@H](Cc1ccccc1)NC(=O)OCc1cncs1)C(=O)c1ccc2nc(N3CCCC3)oc2c1 [Compound C33, Thiazol-5-ylmethyl (2S,3R)-3-hydroxy-1-phenyl-4-(N-(prop-2-ynyl)-2-(pyrrolidin-1-yl)benzo[d]oxazole-6-carboxamido)butan-2-ylcarbamate] as the compound, how does the CC50 [1] read?
A: 61.7 µM

Q: Which recovery [2] does the source give for CCN(C)c1nc2ccc(C(=O)N(C)C[C@@H](O)[C@H](Cc3ccccc3)NC(=O)OCc3cncs3)cc2o1 [Compound C19, Thiazol-5-ylmethyl (2S,3R)-4-(2-(ethyl(methyl)amino)-N-methylbenzo[d]-oxazole-6-carboxamido)-3-hydroxy-1-phenylbutan-2-ylcarbamate] here?
A: 55%

Q: And the CC50 [1]?
A: > 100 µM

Q: With CNc1nc2ccc(C(=O)N(CC(C)C)C[C@@H](O)[C@H](Cc3ccccc3)NC(=O)OCc3cncs3)cc2o1 [Compound C26, Thiazol-5-ylmethyl (2S,3R)-3-hydroxy-4-(N-isobutyl-2-(methylamino)-benzo[d]oxazole-6-carboxamido)-1-phenylbutan-2-ylcarbamate] as the compound, how does the recovery [2] read?
A: 49%

Q: What about the CC50 [1] of the same compound?
A: > 100 µM

Q: Which CC50 [1] does the source give for CCN(C)c1nc2ccc(C(=O)N(C[C@@H](O)[C@H](Cc3ccccc3)NC(=O)OCc3cncs3)CC(C)(C)O)cc2o1 [Compound C34, Thiazol-5-ylmethyl (2S,3R)-4-(2-(ethyl(methyl)amino)-N-(2-hydroxy-2-methylpropyl)benzo[d]oxazole-6-carboxamido)-3-hydroxy-1-phenylbutan-2-ylcarbamate] here?
A: > 100 µM

Q: Which results are given for CC(C)CN(C[C@@H](O)[C@H](Cc1ccccc1)NC(=O)OCc1cncs1)C(=O)c1ccc2nc(-c3ccccc3)oc2c1 [Compound C41, Thiazol-5-ylmethyl (2S,3R)-3-hydroxy-4-(N-isobutyl-2-phenylbenzo[d]-oxazole-6-carboxamido)-1-phenylbutan-2-ylcarbamate]?
A: recovery [2]: 64%; CC50 [1]: 13.8 µM

Q: Which recovery [2] does the source give for C#CCNc1nc2ccc(C(=O)N(CC#C)C[C@@H](O)[C@H](Cc3ccccc3)NC(=O)OCc3cncs3)cc2o1 [Compound C42, Thiazol-5-ylmethyl (2S,3R)-4-(2-(ethynylamino)-N-(prop-2-ynyl)benzo[d]-oxazole-6-carboxamido)-3-hydroxy-1-phenylbutan-2-ylcarbamate] here?
A: 54%

Q: What about the CC50 [1] of the same compound?
A: 93.3 µM
